# The supplement of paper PMC8512760
# The list shows a part of the results. Repeats are few or missing, and single values can be far off.
# Assays:
# Test in all cases: cell viability relative to vehicle (% of vehicle); basal-like triple-negative breast cancer lines; higher = less cytotoxic
# Details in all cases: 10 µM; 72 h
# [1] = test system: HCC-1143
# [2] = test system: HCC-1187
# [3] = test system: MDA-468
# [4] = test system: SUM-149
# 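Note: stably firefly luciferase-GFP labeled cells in 96-well plates, viability read as luciferase photon flux after d-luciferin addition, treated wells normalized to vehicle wells, single-dose high-throughput screen.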
SMILES,cell viability [1],cell viability [2],cell viability [3],cell viability [4]
CCC1OC(=O)CC(O)C(C)C(OC2OC(C)C(O)C(N(C)C)C2O)C(CCN2CC(C)CC(C)C2)CC(C)C(=O)C=CC(C)=CC1COC1OC(C)C(O)C(OC)C1OC (stereo not given) [Tilmicosin],93.4,77.5,100,86.8
CC1(C)CCC(c2ccc(Cl)cc2)=C(CN2CCN(c3ccc(C(=O)NS(=O)(=O)c4ccc(NC(CCN5CCOCC5)CSc5ccccc5)c(S(=O)(=O)C(F)(F)F)c4)cc3)CC2)C1 (stereo not given) [ABT-263 (Navitoclax)],73.3,61.6,62.9,47.2
CO/N=C(\C(=O)N[C@@H]1C(=O)N2C(C(=O)O)=C(CSc3nc(=O)c(O)nn3C)CS[C@H]12)c1csc(N)n1 [Ceftriaxone Sodium Trihydrate],75.1,100,107,90.1
Cc1ccc(Nc2nccc(N(C)c3ccc4c(C)n(C)nc4c3)n2)cc1S(N)(=O)=O.Cl,92.8,93.8,88.6,119
O=c1c(-c2ccc(O)cc2)coc2cc(O)cc(O)c12 [Genistein],141,120,183,138
COc1ccc(-c2nc3ccc(C4=NNC(=O)CC4C)cc3[nH]2)cc1 (stereo not given) [Pimobendan],91.3,83,84.2,104
S=P(N1CC1)(N1CC1)N1CC1,96,100,101,126
O=C(O)c1ccc2ccccc2c1O.OCc1cc(C(O)CNCCCCCCOCCCCc2ccccc2)ccc1O (stereo not given) [Salmeterol xinafoate],85.1,86.4,116,94.7
CC(C)CN(CC(O)C(Cc1ccccc1)NC(=O)OC1CCOC1)S(=O)(=O)c1ccc(N)cc1 (stereo not given) [Amprenavir (agenerase)],84.9,105,88.3,95.5
COc1cc2c(cc1OC)CC(=O)N(CCCN(C)CC1Cc3cc(OC)c(OC)cc31)CC2.Cl (stereo not given) [Ivabradine HCl],78,91.9,104,103
CC(NCCc1ccc(O)cc1)C(O)c1ccc(O)cc1.Cl (stereo not given) [Ritodrine HCl],82.1,102,143,93.3
COC(=O)C1=C(C)NC(C)=C(C(=O)OC(C)C)C1c1cccc2nonc12 (stereo not given) [Isradipine (Dynacirc)],116,99.5,109,98.8
CSc1nc2cc(Oc3cccc(Cl)c3Cl)c(Cl)cc2[nH]1 [Triclabendazole],75.5,88.8,106,116
Cn1c([N+](=O)[O-])cnc1COC(N)=O [Ronidazole],74.1,80.8,101,111
CCN1CCN(c2cc3c(cc2F)c(=O)c(C(=O)O)cn3C2CC2)CC1 [Enrofloxacin],92.2,95.7,114,117
CCOc1ccc(Cc2cc(C3OC(CO)C(O)C(O)C3O)ccc2Cl)cc1 (stereo not given) [Dapagliflozin],81.9,87.7,86,115
CCCS(=O)c1ccc2nc(NC(=O)OC)[nH]c2c1 (stereo not given) [Albendazole Oxide],77,53.8,117,168
NS(=O)(=O)c1cc(C(=O)O)c(NCc2ccco2)cc1Cl [Furosemide],82.6,82.3,98.4,92.6
COC(=O)C1C2CC3c4[nH]c5cc(OC)ccc5c4CCN3CC2CC(OC(=O)c2cc(OC)c(OC)c(OC)c2)C1OC.Cl (stereo not given) [Reserpine hydrochloride],100,83.5,122,116
O=C1C(=O)c2ccccc2C(O)=C1C1CCC(c2ccc(Cl)cc2)CC1 (stereo not given) [Atovaquone],80,86.7,90.3,88.2
O=C(NCCN1CCOCC1)c1ccc(Cl)cc1,104,107,110,106
CC[C@@]1(O)C(=O)OCc2c1cc1n(c2=O)Cc2cc3c(CN(C)C)c(O)ccc3nc2-1 [Topotecan],33.1,29,32.2,35.2
CCOc1cc(N)c(Cl)cc1C(=O)NCC1CN(Cc2ccc(F)cc2)CCO1.O=C(O)CC(O)(CC(=O)O)C(=O)O (stereo not given) [Mosapride Citrate],73.1,103,107,98.3
CC(C)(O)c1ccccc1CCC(SCC1(CC(=O)[O-])CC1)c1cccc(C=Cc2ccc3ccc(Cl)cc3n2)c1.[Na+] (stereo not given) [Montelukast Sodium],72.4,81.5,111,96.9
"Cc1c(C(=O)Nc2ccc(N3CC(C)OC(C)C3)nc2)cccc1-c1ccc(OC(F)(F)F)cc1 (stereo not given) [LDE225 (NVP-LDE225,Erismodegib)]",56.8,58.9,64.2,87
O=C(NC(Cc1cc(=O)[nH]c2ccccc12)C(=O)O)c1ccc(Cl)cc1 (stereo not given) [Rebamipide],77,84.6,108,101
CC(=O)OCC(CCn1cnc2cnc(N)nc21)COC(C)=O [Famciclovir],106,108,87.1,92.1
O=NN(CCCl)C(=O)NC1CCCCC1 [Lomustine],77.4,98.8,102,93.3

SMILES,cell viability [1],cell viability [2],cell viability [3],cell viability [4]
C#C[C@]1(O)CC[C@H]2[C@@H]3CCC4=CCCC[C@@H]4[C@H]3C(=C)C[C@@]21CC [Desogestrel],74.3,92.6,115,115
NNC(=O)c1ccncc1.Nc1ccc(C(=O)O)c(O)c1 [Pasiniazid],71,108,115,86.6
CCCNC1CCc2nc(N)sc2C1 (stereo not given) [Pramipexole],91.6,112,108,102
Cl.NC(N)=NC(=O)Cc1c(Cl)cccc1Cl [Guanfacine hydrochloride],90.8,101,86.8,131
CC(C)NCC(O)COc1cccc2ccccc12.Cl (stereo not given) [Propranolol HCl],77.9,102,113,94.6
CN(C)CCOC(c1ccccc1)c1ccccc1.Cl [Diphenhydramine HCl],98.4,94.1,97.4,96.6
"CC(CN1CC(=O)NC(=O)C1)N1CC(=O)NC(=O)C1.Cl (stereo not given) [Dexrazoxane HCl (ICRF-187, ADR-529)]",86.3,85.2,85.7,94
CC(O)C1C(=O)N2C(C(=O)O)=C(SC3CNC(CNS(N)(=O)=O)C3)C(C)C12 (stereo not given) [Doripenem],77.4,86.1,113,109
CC(C)(C)c1ccc(C(O)CCCN2CCC(C(O)(c3ccccc3)c3ccccc3)CC2)cc1 (stereo not given) [Terfenadine],26.9,31.6,40.6,35.1
CC1CC(=O)NN=C1c1ccc(NN=C(C#N)C#N)cc1 (stereo not given) [Levosimendan],74.1,66.4,73.8,88.8
N#Cc1ccc(C(c2ccc(C#N)cc2)n2cncn2)cc1 [Letrozole],110,106,104,96.8
O=C(NCC(O)CO)c1ccncc1Nc1ccc(I)cc1F (stereo not given),90.7,106,52,133
Nc1ncn(C2CC(O)C(CO)O2)c(=O)n1 (stereo not given),91.3,159,68.3,94.7
"CCC(CO)Nc1nc(NCc2ccccc2)c2ncn(C(C)C)c2n1 (stereo not given) [Roscovitine (Seliciclib,CYC202)]",81.8,63.4,80.2,133
O=C1Cc2cc(CCN3CCN(c4nsc5ccccc45)CC3)c(Cl)cc2N1 [Ziprasidone],105,99.6,103,110
CCCCN1CCCCC1C(=O)Nc1c(C)cccc1C.Cl (stereo not given) [Levobupivacaine HCl],79.4,81.8,106,137
NCCS(=O)(=O)O [Taurine],69.4,88.4,91.7,92.9
CC1(C)SC2C(NC(=O)Cc3ccccc3)C(=O)N2C1C(=O)[O-].[Na+] (stereo not given) [Penicillin G Sodium],91.8,103,106,89.8
COc1c2ccoc2cc2oc(=O)ccc12 [5-Methoxypsoralen],77.3,87.6,131,112
CN(C)CCCOc1nn(Cc2ccccc2)c2ccccc12.Cl [Benzydamine HCl],98.6,119,124,79.1
C=C1C(CO)C(O)CC1n1cnc2c(=O)nc(N)[nH]c21.O (stereo not given) [Entecavir Hydrate],74.2,91.9,80.7,97.2
CS(=O)(=O)c1ccc(C(O)C(CF)NC(=O)C(Cl)Cl)cc1 (stereo not given) [Florfenicol],77,92.4,108,115
COC(=O)N(C)c1c(N)nc(-c2nn(Cc3ccccc3F)c3ncccc23)nc1N [Riociguat],107,103,80.3,115
NC(=O)OCC(COC(N)=O)c1ccccc1 [Felbamate],79.5,98.8,96.2,108
O=C(O)CCNC(=O)c1ccccc1 [Betamipron],84.8,109,110,85.8
NC(N)=Nc1nc(CSCCC(N)=NS(N)(=O)=O)cs1 [Famotidine],84.3,95.3,97.8,106
Br.Br.Br.Br.Br.Cc1cc(N2CCN(C3CNC(C(=O)N4CCSC4)C3)CC2)n(-c2ccccc2)n1.Cc1cc(N2CCN(C3CNC(C(=O)N4CCSC4)C3)CC2)n(-c2ccccc2)n1 (stereo not given) [Teneligliptin hydrobromide],99.9,96.3,91.7,102
